Among all 7,900 compounds or so, about 400 (5.1%) showed an effect of 50% or more. This is one part of the list.
Each compound was assayed against Parkinson's disease protein 7 (PARK7/DJ1) (human, UniProt Q99497) (assay: primary screen, percent inhibition; read as competition with a fluorescent probe by fluorescence polarization; higher = more effect of the substance). Settings: 100 µM.
Chain of Parkinson's disease protein 7 (PARK7/DJ1) (Q99497 whole entry, looked up, the tested form may be a part): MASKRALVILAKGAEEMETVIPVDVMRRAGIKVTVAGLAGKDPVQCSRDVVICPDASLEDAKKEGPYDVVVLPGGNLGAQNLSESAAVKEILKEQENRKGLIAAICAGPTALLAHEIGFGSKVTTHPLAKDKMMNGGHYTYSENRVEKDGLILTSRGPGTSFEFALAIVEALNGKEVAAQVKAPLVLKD
Procedure, shortened: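 Covalent fragments at 100 μM final were incubated 2 h with 0.2 μM PARK7, then 20 nM probe JYQ-107 added for a further 2 h. Fluorescence polarization read at 480/520 nm; relative FP loss versus reference controls gave remaining enzyme activity.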
For `CSC1CCCC1N(C)CCN1C(=O)CCC1=O` (stereo not drawn), the Inhibition % was 11%.
`N#CC(=Cc1ccc(N)nc1)C(=O)NC1CCCC1` gave an Inhibition % of -3.77%.
With `O=C1OCCC1Sc1ncc(-c2ccc(F)cc2)o1` (stereo not drawn) the Inhibition % was 40.5%.
For `C=CC(=O)NCC1CCC(C(N)=O)CC1` (stereo not drawn), the Inhibition % was 11.8%.
Compound `Cc1ccnc(S)c1` has an Inhibition % of 8.62%.
With `C=CC(=O)N1CCN(c2cccs2)CC1` the Inhibition % was 5.52%.
`O=C(CCl)NC1c2ccccc2-c2ccccc21` showed an Inhibition % of 4.21%.
`C=CC(=O)NC1CCC(N2CCCCC2)C1` (stereo not drawn) gave an Inhibition % of 9.75%.
`CCN(CC)S(=O)(=O)c1cccc(NC(=O)CCl)c1` was tested, and the Inhibition % was 22.5%.
Compound `O=C1NC(c2ccccc2)C12CCCC2` (stereo not drawn) has an Inhibition % of 3.32%.
With `Cc1nc(C#N)[nH]c1C` the Inhibition % was 3.54%.
`COc1ccc(CCNC(=O)n2ccnc2)cc1OC` gave an Inhibition % of 10.3%.
`C=CC(=O)N1CC(C)(C)OC2(CCCC2)C1` gave an Inhibition % of 3.79%.
In the case of `O=S(=O)(F)CCSc1nnc2sc3ccccc3n12`, the Inhibition % was 7.67%.
`CC1(C)OB(c2cnc3c(c2)OCO3)OC1(C)C` was tested, and the Inhibition % was 10.4%.
With `CCc1cc2c(=O)n(CCS(=O)(=O)F)cnc2s1` the Inhibition % was 9.17%.
`Cc1cnc(CCNS(=O)(=O)C=Cc2ccccc2)s1` showed an Inhibition % of 7.5%.
In the case of `C=CC(=O)NCC1CC2(CCOCC2)CO1` (stereo not drawn), the Inhibition % was 5.16%.
`C#CC(=O)N1CCC(C)(C(=O)O)CC1` gave an Inhibition % of 6.42%.
`Cc1cc2ncn(CC3CO3)c2cc1C` (stereo not drawn) showed an Inhibition % of 20.8%.
Work on `N#Cc1ncn(CCC(=O)Nc2cc(Cl)ccc2Cl)n1` yielded an Inhibition % of 1.82%.
With `COc1ccccc1C1=NOC(=O)C1` the Inhibition % was 14%.
Compound `C=CCNC(=O)C(C#N)=Cc1c(F)cccc1F` has an Inhibition % of 27.7%.
Compound `CC1(C)OB(c2ccc(C(F)F)c(F)c2)OC1(C)C` has an Inhibition % of -1.1%.
Work on `CCOc1ccc(S(=O)(=O)n2ccnc2C)cc1C` yielded an Inhibition % of 12.5%.
With `C=CC(=O)N1CCOC(C2CC2)(C2CC2)C1` the Inhibition % was 2.67%.
With `O=C(NC1CC1)c1cc(S)nc2ccccc12` the Inhibition % was 4.88%.
Compound `Fc1ccc(F)c(C2CO2)c1` (stereo not drawn) has an Inhibition % of 9.22%.
In the case of `COC[C@@H]1C[C@@H](OC)CN1Cc1cc(C#N)n(C)c1`, the Inhibition % was 15.6%.
Compound `Clc1ccccc1C1CO1` (stereo not drawn) has an Inhibition % of 5.56%.
`C=CC(=O)NCCCn1nc(C)cc1C` was tested, and the Inhibition % was -2.87%.
With `Cc1ccc2ccccc2c1B(O)O` the Inhibition % was 0.986%.
`O=C(Cn1c(-c2ccccc2)noc1=O)N1CCOCC1` was tested, and the Inhibition % was 5.92%.
`O=C(O)C=CS(=O)(=O)c1ccccc1` gave an Inhibition % of 6.07%.
`C=CC(=O)N1CCCC(c2ccccc2)C1` (stereo not drawn) was tested, and the Inhibition % was 4.78%.
Compound `NC(=O)c1ccc(OCCCl)cc1` has an Inhibition % of -3.9%.
For `CC1(C)OB(c2ccc3c(c2)OCC3)OC1(C)C`, the Inhibition % was 17.4%.
Compound `O=C(Nc1ccncc1)N1CCC(C2OCCO2)CC1` has an Inhibition % of 9.17%.
`O=C(CCl)NC(c1ccccc1)c1ccc(Cl)cc1` (stereo not drawn) gave an Inhibition % of 9.28%.
With `COc1ccc(OC)c(NC(=O)CCl)c1` the Inhibition % was 13.5%.
`COC1(Cn2c(S)nc3ccccc3c2=O)CCOCC1` was tested, and the Inhibition % was -1.4%.
`N#Cc1ncn(CC(=O)N2CCCCC2)n1` showed an Inhibition % of 7.22%.
With `C=CC(=O)N1CCN(C(=O)c2cnccn2)CC1` the Inhibition % was 1.2%.
`N#Cc1ccnc2ccnn12` showed an Inhibition % of 4.63%.
Compound `Cc1occc1C(=O)N1CCN(C2CC(C)OC2=O)CC1` (stereo not drawn) has an Inhibition % of 17.2%.
In the case of `O=C(Cc1ccccc1Cl)N1CCCCC1C1OCCO1` (stereo not drawn), the Inhibition % was 14.3%.
`C=CC(=O)NC(C)Cn1cnnc1` (stereo not drawn) was tested, and the Inhibition % was 13.5%.
`N#Cc1c(NC(=O)CCl)sc2c1CCCCC2` was tested, and the Inhibition % was 4.48%.
`N#Cc1ncn(Cc2c(F)cccc2Cl)n1` gave an Inhibition % of 0.988%.
Compound `Cc1nc(S)c(C#N)cc1C(=O)Nc1ccccc1` has an Inhibition % of 10.1%.
With `C=CC(=O)NCc1nc(-c2cccc(C#N)c2)c[nH]1` the Inhibition % was 1.96%.
With `COc1ccc(S(=O)(=O)n2ccnc2)cc1C(C)(C)C` the Inhibition % was 5.47%.
`CC1(C)OB(c2cc3ccccc3o2)OC1(C)C` was tested, and the Inhibition % was 1.38%.
Compound `O=C(O)c1cnn(CCCl)c1` has an Inhibition % of 16%.
`C=CC(=O)N1CCC2(CCCC2)C1` showed an Inhibition % of 2.45%.
Compound `CC1(C)OB(c2cnn(C(F)F)c2)OC1(C)C` has an Inhibition % of 7.69%.
With `CC1CCc2ccccc2N1C(=O)Cn1cnc(C#N)n1` (stereo not drawn) the Inhibition % was 8.8%.
With `C=CC(=O)N1CCc2ccccc2C(C)C1` (stereo not drawn) the Inhibition % was 4.65%.
`Cc1ccc(CN(C)S(=O)(=O)C=Cc2ccccc2)o1` showed an Inhibition % of 10.9%.
Work on `CC1CC1C(=O)N1CCOC(CS(=O)(=O)F)C1` (stereo not drawn) yielded an Inhibition % of 11.8%.
Compound `C=CC(=O)N(C)Cc1ccccn1` has an Inhibition % of 28.5%.
With `N#Cc1ccc(S(=O)(=O)Nc2c(F)cccc2Cl)cn1` the Inhibition % was 29.9%.
Work on `Cc1nn(C)c(Cl)c1C=CC(=O)N1CCCCC1CN` (stereo not drawn) yielded an Inhibition % of 15.6%.
